Measured values taken from PubChem BioAssay AID488969 (Vanderbilt High Throughput Screening Facility, 2010).
Over roughly 110,000 compounds, “z-score” has its median near -0.1; the highest 2% begin near 2. The list shows a part of the results.

target: Metabotropic glutamate receptor 8 (Rattus norvegicus) (UniProt P70579); experiment: mGluR8 Gi/Go-coupled signaling modulation – cell-based, rat, thallium flux, HTS, primary screen (AID 488969); settings: HEK293 rat mGluR8, GIRK (G protein-gated inwardly rectifying potassium channel) thallium flux, FluoZin2; at 10 µM; stronger effect = higher value; submaximal glutamate (EC20) added with thallium
Chain of UniProt P70579 (P70579 whole entry, looked up): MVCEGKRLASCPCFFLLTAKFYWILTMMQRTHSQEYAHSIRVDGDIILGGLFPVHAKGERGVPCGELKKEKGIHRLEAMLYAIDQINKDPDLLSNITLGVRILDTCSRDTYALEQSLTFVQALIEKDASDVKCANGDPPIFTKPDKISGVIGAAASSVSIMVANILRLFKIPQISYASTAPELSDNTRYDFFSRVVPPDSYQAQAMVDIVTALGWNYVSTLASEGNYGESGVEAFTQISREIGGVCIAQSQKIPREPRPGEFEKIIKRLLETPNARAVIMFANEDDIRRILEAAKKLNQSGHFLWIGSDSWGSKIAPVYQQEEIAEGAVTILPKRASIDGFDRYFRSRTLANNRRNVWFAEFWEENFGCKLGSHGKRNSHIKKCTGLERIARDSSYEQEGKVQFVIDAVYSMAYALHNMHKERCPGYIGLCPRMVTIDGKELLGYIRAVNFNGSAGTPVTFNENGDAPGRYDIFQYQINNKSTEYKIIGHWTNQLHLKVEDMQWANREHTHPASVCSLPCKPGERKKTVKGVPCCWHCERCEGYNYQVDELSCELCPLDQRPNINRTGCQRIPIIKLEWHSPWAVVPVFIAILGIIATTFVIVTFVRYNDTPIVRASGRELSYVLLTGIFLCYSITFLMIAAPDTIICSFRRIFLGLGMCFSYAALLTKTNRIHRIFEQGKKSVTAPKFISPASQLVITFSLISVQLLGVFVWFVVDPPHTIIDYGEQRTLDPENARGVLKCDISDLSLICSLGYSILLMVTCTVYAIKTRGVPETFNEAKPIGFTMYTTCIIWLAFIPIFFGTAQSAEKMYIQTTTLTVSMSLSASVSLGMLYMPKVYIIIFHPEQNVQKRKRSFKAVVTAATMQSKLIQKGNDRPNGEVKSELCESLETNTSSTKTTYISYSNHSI

SMILES	z-score
COc1ccc(OCc2nnnn2-c2ccccc2)cc1	0.144
Cc1ccc2nc3c(cc2c1)c(NS(=O)(=O)c1ccccc1)nn3CC(C)C	-0.165
O=C(COc1ccc(S(=O)(=O)NC2CCCCC2)cc1)NCCC1=CCCCC1	0.0563
CCOC(=O)Cc1csc(NC(=O)c2ccc3c(c2)OCO3)n1	-0.00374
CCCCc1sc(-c2c(C#N)c(N)nc3c2CCCCC3)cc1[N+](=O)[O-]	0.124
Cc1ccc(CNC(=O)c2oc3ccc(S(=O)(=O)N4CCOCC4)cc3c2C)cc1	-0.153
CC(=O)Nc1nonc1NC(=O)c1ccc(F)cc1	0.0895
O=C1CN(C(=O)COC(=O)C23CC4CC(CC(O)(C4)C2)C3)c2ccccc2N1	0.67
Cc1cccc(-c2c3c(=O)n(C)c(=O)n(C)c3cn2CC2CCCO2)c1 (stereo unspecified)	0.462
COc1ccc(N=Cc2sc(O)c3ccccc23)cc1	-0.252
COc1ccc(C(c2nnnn2C2CCCC2)N2CCN(C3CCCC3)CC2)cc1OC (stereo unspecified)	-0.309
CC(C)Cn1nc(NC(=O)C2CCCO2)c2cc3ccccc3nc21 (stereo unspecified)	-1.57
COC(=O)/C(=C(/F)Sc1cc(C)c(O)c(C)c1)C(F)(F)F	0.715
Cc1occc1C(=O)NNC(=O)NC12CC3CC(CC(C3)C1)C2	-0.244
O=C(CCCOc1ccc(Cl)cc1Cl)Nc1ccncc1	2.21
CCCCN(CCCC)c1cc(C)nc(-c2ccccc2O)n1	-0.125
COc1cc(Nc2nc3ccccc3n3nnnc23)cc(OC)c1OC	-0.0435
CCC(=O)c1c[nH]c(C(=O)NCCCN2CCOCC2)c1	-0.121
COc1ccc(N2CCN(C(=O)c3ccc(C)c(Cl)c3)CC2)cc1	-1.08
N#CC1=C(SCC(=O)c2cc3ccccc3oc2=O)NC(=O)C(C#N)C12CCCC2 (stereo unspecified)	0.149
CCOC(=O)N1CCN(C(=O)CCn2c(=S)[nH]c3cc(OCC)c(OCC)cc3c2=O)CC1	-0.56
Cc1ccc(S(=O)(=O)CCC(=O)NCc2ccc(Cl)cc2)cc1	-0.273
CN(c1nc2c(c(=O)n(C)c(=O)n2C)n1CC(=O)c1ccccc1)C1CCCCC1	-1.59

SMILES	z-score
Cn1c(CNS(=O)(=O)c2ccc(F)cc2)n[nH]c1=S	-0.234
Cc1[nH]c2ccccc2c1C(=O)Cn1c(=O)oc2ccccc21	0.0211
Cc1csc(SCc2ccc(C(=O)O)cc2)n1	-0.165
S=C(NCCC(c1ccccc1)c1ccccc1)Nc1ccccc1Cl	0.298
O=C(Nc1cnc2sccn2c1=O)c1ccccc1Cl	-0.151
Cc1cc(C)[n+](-c2ccc(F)cc2)c2[nH]c(=O)[nH]c(=O)c12	0.407
COc1ccc(C2NC(=O)c3ccccc3O2)cc1OC (stereo unspecified)	-0.511
Cc1nc2ccccc2c2c1C(=O)N(C(C)C)C2=O	-0.214
CS(=O)(=O)N(CC(=O)Nc1ccccc1C(=O)NCc1ccco1)c1ccc2c(c1)OCCO2	-0.0509
Cc1cc(C)c2c(=O)[nH]c(SCC(=O)NCCc3ccccc3)nc2n1	-0.199
CN(c1ccc(C(=O)Nc2ccccc2C(F)(F)F)cc1)S(C)(=O)=O	0.514
Cc1cccc(NC(=O)c2ccc(C3SCC(=O)N3CCc3ccccc3)cc2)c1C (stereo unspecified)	0.401
Cc1noc(C)c1S(=O)(=O)N1CCCC(C(=O)Nc2ccc(Cl)cn2)C1 (stereo unspecified)	0.645
O=C(O)C1C2CCC(C2)C1C(=O)Nc1cc(F)ccc1F (stereo unspecified)	-0.346
COc1cc(C(Nc2ccccn2)c2ccc3ccc(C)nc3c2O)cc(OC)c1O (stereo unspecified)	-0.746
S=c1nn[nH]n1C12CC3CC(CC(C3)C1)C2	2.46
COc1cccc(/C=N/n2cnc3ccccc32)c1OC	-0.147
CCOc1ccc(Cc2nnc(N)s2)cc1OCC	0.068
O=C(CC1Nc2cccc3cccc(c23)NC1=O)Nc1ccccc1 (stereo unspecified)	-0.474
Cc1ccc(C(=O)c2cn[nH]c2-c2cc(Cl)ccc2O)cc1	-0.48
CCOC(=O)C1CCN(C(=O)CN(Cc2ccccc2)S(C)(=O)=O)CC1	0.143
COc1cccc(C(=O)N2CCN(C(=O)c3cccc4ccccc34)CC2)c1OC	0.246
COC(=O)C(CCSC)NC(=O)C12CC3CC(CC(C3)C1)C2 (stereo unspecified)	-0.128

SMILES	z-score
CC(C)(C)c1csc(NC(=O)Cn2c(=O)oc3ccccc32)n1	-0.25
CCc1ccc(OCC(=O)NNC(=O)CSc2nnc(-c3ccc(C)cc3)n2C)cc1	-0.485
Cc1cc(NC(=O)CSc2nc(-c3cccnc3)ccc2C#N)no1	0.399
Cc1cc(C)n(C2CC(=O)N(c3ccccc3)C2=O)n1 (stereo unspecified)	0.0838
O=c1sc2ccccc2n1COc1ccccc1	-1.03
COC(=O)C1CCN(C(=O)C2CCCCC2)CC1	-0.248
CC(C)(C)NC(=O)CCN1CCOCC1	-0.348
COc1ccc(N(CC(=O)NCC2CCCO2)S(=O)(=O)c2ccc(C)cc2)cc1OC (stereo unspecified)	0.0521
Cc1sc2nc(CSc3ccccc3)nc(N3CCN(C)CC3)c2c1C	-0.155
Clc1ccc(Oc2nc(Oc3ccc(Cl)cc3)nc(N3CCOCC3)n2)cc1	-0.0696
NC(=O)C1CCN(C(=O)c2cc3ccccn3n2)CC1	0.194
CC(NC(=O)c1ccc(Br)cc1)c1ccc2c(c1)CCCC2 (stereo unspecified)	1.4
Cc1cc(C)c(C#N)c(SCC(=O)NN2CC(=O)N(c3ccccc3F)CC2=O)n1	-0.089
CCOc1ccc(C(=O)OCC(=O)NCc2ccco2)cc1OCC	-0.0124
COc1ccc(NC(=O)COC(=O)[C@@H]2CCCN2C(=O)c2cccs2)cc1	-0.22
CC1Cc2ccccc2N1CC(=O)Nc1ccc2c(c1)OCO2 (stereo unspecified)	-0.661
Cc1ccc(-n2nc(C)c3c2OC(N)=C(C#N)C3c2ccoc2)cc1 (stereo unspecified)	0.469
CC(C)C(c1nnnn1C1CCCC1)N1CCCCC1 (stereo unspecified)	0.273
CCOC(=O)C1C(=O)CC(C)(O)C(C(=O)OCC)C1c1ccc2c(c1)OCO2 (stereo unspecified)	0.354
Cc1ccc(C(=O)NCC(=O)OCC(=O)Nc2cc(C)c(C)cc2[N+](=O)[O-])cc1	-0.241
O=C(Nc1cccc(S(=O)(=O)N2CCOCC2)c1)c1ccc(N2CCOCC2)c([N+](=O)[O-])c1	-0.181
CC(=O)NS(=O)(=O)c1ccc(NC(=O)CN2C(=O)C3C4C=CC(C4)C3C2=O)cc1 (stereo unspecified)	-1.16
CC(C)C[C@H](NC(=O)OC(C)(C)C)c1nnc(SCc2cccc(F)c2)o1	-0.53

SMILES	z-score
Cc1coc2c(C)c3oc(=O)cc(-c4ccccc4)c3cc12	-0.31
Cc1cccc(NC(=O)COc2ccccc2C)n1	0.0201
O=C(Cc1ccccc1)N1CCC(c2nc3ccccc3[nH]2)CC1	-0.282
Cc1ccc(NC(=O)CSc2nnc(NC(=O)c3ccc(S(=O)(=O)N4CCOCC4)cc3)s2)cc1	-0.354
COC(=O)C1=C(NC(=O)c2cccc(OC)c2)CCS1	-0.151
Cc1cc(C)c(NC(=O)CN2C(=O)NC3(CCOc4ccccc43)C2=O)c(C)c1 (stereo unspecified)	0.138
O=C(O)Cc1ccc(NC(=O)c2cccs2)cc1	-0.122
CC(NC(=O)COC(=O)/C=C/c1cccc(C(F)(F)F)c1)c1ccccc1 (stereo unspecified)	-0.0485
COc1ccc(/C=C(\NC(=O)c2ccc(OCC(C)C)cc2)C(=O)OCc2ccco2)cc1	-0.0216
COc1ccc2[nH]c(=O)c(CN(CCc3cccc(C)c3)C(C)=O)cc2c1	-0.529
Cc1cc2c(cc1C)CSC(c1ccccc1OC(=O)C(C)C)SC2	-0.312
CC1CN(S(=O)(=O)c2ccccc2)CC(C)O1 (stereo unspecified)	0.256
O=C(O)CCCn1nc(C(F)(F)F)c2c1CCCCC2	-0.241
CCCCC(=O)Nc1ncc(Br)s1	-0.0496
CCCCC(C(=O)NC(C)(C)C)N(Cc1ccco1)C(=O)c1snc(C(N)=O)c1N (stereo unspecified)	-0.117
COc1ccccc1NS(=O)(=O)c1ccc(Cl)c(NC(=O)C(C)N2C(=O)c3ccccc3C2=O)c1 (stereo unspecified)	-0.268
O=C(NC(=S)Nc1cccc(NC(=O)c2ccc(Cl)cc2Cl)c1)c1cccs1	-0.0725
Cc1ccc(C(=O)N2CCN(c3ncccn3)CC2)cc1S(=O)(=O)N1CCCCC1	0.0638
Cc1ccc(C)c(OCC(=O)Nc2ccc(S(=O)(=O)Nc3ccccn3)cc2)c1C	-2.3
NNC(=O)C1CC1c1ccccc1 (stereo unspecified)	-0.129
COc1ccc(NC(=O)Cn2c(=O)n(-c3ccc(OC)cc3OC)c(=O)c3c(C)c(C)sc32)cc1	-0.469
O=[N+]([O-])c1ccc2c(c1)ncn2-c1ccccc1	0.0313
COc1ccc(CCNS(=O)(=O)c2cn(C)c(=O)n(C)c2=O)cc1OC	-0.0888

SMILES	z-score
Cc1ccc(/C=C2\SC(N3CCN(C(c4ccccc4)c4ccccc4)CC3)=NC2=O)o1	0.00418
COc1ccc2nc(COC(=O)c3ccco3)c(C(C)=O)[n+]([O-])c2c1	0.0313
CCN1CCN(c2ccc(NC(=O)c3ccc4c(c3)OCO4)cc2)CC1	-0.0909
CCN1CCc2nc(NC(=O)c3ccccc3)sc2C1	0.0235
CC(C)C(=O)Nc1ccc(C(=O)NNC(=O)c2cccs2)cc1	0.224
O=C(Oc1ccccc1N1C(=O)CCC1=O)c1ccco1	0.258
CCN(CC)C(=O)COc1ccc(S(=O)(=O)N2CCOCC2)cc1	-0.144
COc1ccc2nc(NCCCO)[nH]c2c1	0.653
CC(C)(C)NC(=O)C1CCC(C)(C(=O)O)C1(C)C (stereo unspecified)	1.19
CCNC(=S)NS(=O)(=O)c1ccc(Cl)cc1	-0.126
Cc1oc(-c2ccccc2)nc1CC(=O)O	-0.979
COC(=O)c1ccccc1NC(=S)NC(=O)c1ccc(C)cc1	2.94
COc1ccc(NC(=O)NC2CCN(C(C)C)CC2)c(OC)c1	-0.212
O=C(CN1CCCCC1)N1CCCc2c1c(=O)oc1ccc(OCc3ccccc3)cc21	0.154
COC(=O)CCc1c(C)[nH]c(=S)[nH]c1=O	0.108
COc1ccc(CNc2ccc(-c3ccccc3OC)nn2)cc1	-0.17
CCC(=O)NCC(=O)OCC(=O)c1ccccc1	-0.0257
COc1cc(/C=N\Nc2ccc([N+](=O)[O-])cc2)ccc1OCC(=O)Nc1ccc(C)c(C)c1	-0.212
Cc1cc(/C=N/n2cnnc2)c(C)n1-c1ccc(Cl)cc1	-0.0755
